From PubChem BioAssay (NCATS)
The inconclusive results got no clear call from the source; some entries with a clear call stand among them for comparison. Potencies of inconclusive entries are doubtful fits and often do not repeat. The source made the active and inactive calls. Calls follow the shape of the dose curve; as a rule, active = well fitted activation curve with a large enough effect; inconclusive = small, poorly fitted or top-dose-only effect; inactive = no such curve, though single readings can be large or run the other way.

target: Cellular tumor antigen p53 (Homo sapiens) (UniProt P04637); assay: Primary qHTS for small molecule compounds that upregulate eGFP-tagged delta133p53alpha (in N-terminal) cells. (AID 2060322); details: NCI-H358 eGFP-delta133p53alpha fluorescence, 24 h; activation: active compounds read high; also: nearly all actives have a fitted effect of over 75% in size;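 as to activation: series mostly up to about 56 µM; 0% = DMSO vehicle and 100% = reference activator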
UniProt P04637, sequence (P04637 whole entry, looked up): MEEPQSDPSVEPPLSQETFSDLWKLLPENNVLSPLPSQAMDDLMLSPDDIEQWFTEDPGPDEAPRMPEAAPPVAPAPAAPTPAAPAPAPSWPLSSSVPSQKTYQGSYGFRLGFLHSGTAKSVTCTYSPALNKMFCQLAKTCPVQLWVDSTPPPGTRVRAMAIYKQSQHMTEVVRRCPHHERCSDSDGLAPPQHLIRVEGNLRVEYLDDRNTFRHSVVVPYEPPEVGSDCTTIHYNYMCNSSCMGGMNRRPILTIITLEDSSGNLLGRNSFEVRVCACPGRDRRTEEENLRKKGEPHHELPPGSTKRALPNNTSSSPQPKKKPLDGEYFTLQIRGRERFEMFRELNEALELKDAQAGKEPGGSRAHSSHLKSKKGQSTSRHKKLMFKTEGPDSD
How it was run: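 NCI-H358 cells pre-induced 24 h with 10 ng/ml doxycycline to express N-terminal eGFP-delta133p53alpha, then dosed 24 h at 37C without doxycycline; fixed, Hoechst-stained, GFP intensity by laser scanning cytometry, normalized to DMSO (0%) and 57.5 uM 5-azacytidine (100%).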
Potency is read from the fitted curve at half-maximal effect; tags tell the direction and shape of the fitted curve.

Row | Structure (SMILES) | activation | Potency
1 | CC1OC(OC2C(C)OC(OC3C(O)C(CO)OC(O[C@H]4CC[C@@]5(C)C(CC[C@]6(C)C5CC=C5C7[C@@H](C)[C@H](C)CC[C@]7(C(=O)O)CC[C@]56C(=O)O)C4(C)C)C3O)C(O)C2O)C(O)C(O)C1O (stereo not given in full) | inactive: 3.82% | –
2 | C=C1C(=O)O[C@@H]2/C=C(\C)C(=O)/C=C/[C@](C)(O)C[C@@H](OC(=O)C(C)C)[C@@H]12 | – | active: 2.95 µM
3 | CC(C)(O)/C=C/C(=O)[C@](C)(O)[C@H]1[C@H](O)C[C@@]2(C)[C@@H]3CC=C4[C@@H](C[C@H](O[C@@H]5O[C@H](CO)[C@@H](O)[C@H](O)[C@H]5O)C(=O)C4(C)C)[C@]3(C)C(=O)C[C@]12C | inconclusive: 34.4% [activator] | –
4 | NC(=O)C(=O)N/N=C/c1ccc([N+](=O)[O-])o1 | – | inconclusive: 8.71 µM [activator, single point]
5 | CCCCNc1ncc(C(=O)NCc2ccc(-n3ccnc3)cc2)c(NC2CCC(O)CC2)n1 (stereo not given) | – | active: 21.3 µM
6 | [Cl][In]([Cl])[Cl] | – | inconclusive: 79.6 µM [activator, single point]
7 | CN1CCCN(C(c2ccccc2)c2ccc(Cl)cc2)CC1 (stereo not given) | – | inconclusive: 13.8 µM [activator, single point]
8 | O=C1c2ccc(Nc3ccc(F)cc3F)cc2CCc2ccc(OCC(O)CO)cc21 (stereo not given) | – | inconclusive: 23.9 µM [activator, single point]
9 | C/C(=C/CCC(CO)C1CCC2(C)C3CCC4C(C)(C)C(OC5OC(CO)C(O)C(O)C5O)CC(O)C45CC35CCC12C)COC1OC(CO)C(O)C(O)C1O (stereo not given) | inactive: -10.7% | –
10 | COc1cc2c(cc1OC)[C@@H]1[C@H](O)[C@@H](OC)C=C3CCN(C2)[C@H]31 | – | active: 16.6 µM
11 | CC(C)n1cnc2c(-c3cnc(N)nc3)nc(N3CCOCC3)nc21 | inactive: 15.7% | –
12 | C=C1C(=O)OC2/C=C(\CO)CC/C=C(\C=O)CC(OC(=O)CC(C)C)C12 (stereo not given) | – | active: 14.8 µM
13 | C=C(C)C(=O)O[C@H]1CC2=CC(C/C(C)=C\[C@H]3OC(=O)C(=C)[C@H]13)OC2=O (stereo not given in full) | – | inconclusive: 13.2 µM [activator, single point]
14 | C=CCOc1cc(Cl)ccc1C(=O)NCCN(CC)CC | – | inconclusive: 8.49 µM [activator, single point]
15 | COC(=O)C1=CO[C@@H](O[C@@H]2O[C@H](CO)[C@@H](O)[C@H](O)[C@H]2O)[C@H]2[C@@H]1CC(OC)O[C@@H]2C (stereo not given in full) | – | inconclusive: 0.928 µM [activator, partial curve, poor fit]
16 | CCOc1cc(C)c(Cl)cc1S(=O)(=O)n1cnc2ccccc21 | – | inconclusive: 18.5 µM [activator, single point]
17 | COC(=O)N[C@H](C(=O)N1[C@@H]2CC[C@@H](C2)[C@H]1c1nc2ccc(-c3ccc4c(c3)C(F)(F)c3cc(-c5cnc([C@@H]6CCC7(CC7)N6C(=O)[C@@H](NC(=O)OC)C(C)C)[nH]5)ccc3-4)cc2[nH]1)C(C)C | – | inconclusive: 0.928 µM [activator, partial curve, poor fit]
18 | CCCCCC=CCC=CCCCCCCCC(=O)OCC | – | inconclusive: 21.9 µM [activator, single point]
19 | COc1ccc(C(=O)c2ccccc2O)c(O)c1 | inactive: 10.9% | –
20 | NC1(C(=O)NC(CCO)c2ccc(Cl)cc2)CCN(c2ncnc3[nH]ccc23)CC1 (stereo not given) | – | inconclusive: 37.9 µM [activator, single point]

Row | Structure (SMILES) | activation | Potency
21 | CN(C)CCCCC(=O)Nc1ccc(NC(=S)NC(=O)c2ccc(C(C)(C)C)cc2)cc1 | – | inconclusive: 4.26 µM [activator, partial curve]
22 | CC(=O)SC[C@@H](Cc1ccccc1)C(=O)NCC(=O)OCc1ccccc1 | – | inconclusive: 17.4 µM [activator, single point]
23 | COc1cc(/C=C/C(=O)O)ccc1O[C@@H]1O[C@H](CO)[C@@H](O)[C@H](O)[C@H]1O[C@@H]1OC[C@](O)(CO)[C@H]1O | inactive: -13% | –
24 | C=C(C)C(=O)O[C@H]1C[C@@](C)(O)C2(O)CCC(C)(/C=C3/OC(=O)C(COC)=C31)O2 (stereo not given in full) | – | inconclusive: 4.67 µM [activator, single point]
25 | CC1CCC/C=C/C(=O)c2c(O)cc(O)cc2CC(=O)O1 (stereo not given) | – | inconclusive: 23.9 µM [activator, single point]
26 | COc1cc2nc(N3CCN(C(=O)c4ccco4)C4CCCCC43)nc(N)c2cc1OC (stereo not given) | – | inconclusive: 37.9 µM [activator, single point]
27 | CN(C)CCc1c[nH]c2ccc(Cn3cncn3)cc12 | – | active: 21.7 µM
28 | CC1(C)C(N(O)C(=O)Nc2ccc(Cl)cc2)N(c2ccc(Cl)cc2)C(=O)N1CC(=O)NN=CC=Cc1ccc([N+](=O)[O-])o1 (stereo not given) | – | inconclusive: 43.2 µM [activator, single point]
29 | CN1CCN(c2cc3c(nn2)Oc2ccccc2N3C)CC1 | – | inconclusive: 19 µM [activator, single point]
30 | C=C1CC[C@H]2C(=C)CC[C@H]3C(=C)C(=O)O[C@@H]3[C@@H]12 | – | inconclusive: 30.1 µM [activator, single point]
31 | CS/C=C/C(=O)O[C@@H]1CCC2=CC(=O)C(=C(C)C)C[C@]2(C)[C@H]1C | inactive: -1.79% | –
32 | O=C(CCCN1CCN(c2ccccn2)CC1)c1ccc(F)cc1 | – | inconclusive: 0.174 µM [activator, full curve, poor fit]
33 | CC1(C)CC2C3=CCC4[C@@]5(C)CC[C@H](OC6OCC(O)C(OC7OC(CO)C(O)C(O)C7O)C6O)C(C)(C)C5CC[C@@]4(C)[C@]3(C)C[C@H](O)[C@@]2(CO)[C@H](OC(=O)c2ccccc2)C1 (stereo not given in full) | inactive: 19.8% | –
34 | CCCCCC(O)CCCC(=O)O (stereo not given) | – | inconclusive: 3.38 µM [activator, partial curve, poor fit]
35 | CC(C)Cc1ccc(C(C)C(=O)OCc2ccccn2)cc1 (stereo not given) | – | inconclusive: 34.7 µM [activator, single point]
36 | Oc1ccc(C=Cc2cc(O)cc(O)c2)cc1 | – | inconclusive: 10.9 µM [activator, partial curve, poor fit]
37 | O=C(OCC#CCSc1nnc(-c2cccc3ccccc23)o1)c1cc2ccccc2s1 | – | inconclusive: 15.3 µM [activator, partial curve]
38 | CC(C)(C)NC[C@H](O)COc1nsnc1N1CCOCC1 | – | inconclusive: 9.78 µM [activator, partial curve, poor fit]
39 | C/C=C(\C)C(=O)O[C@H]1C=C(CO)C(=O)[C@H](OC(C)=O)[C@H]1C(C)C | – | inconclusive: 18.6 µM [activator, single point]
40 | C[C@@]12C(=O)OC(=O)[C@@]1(C)C1CCC2O1 | – | active: 9.68 µM
